Assay results: the supplement of paper PMC7125110
± gives the standard error. Variants at the floor of the assay are shown more often than the library holds them.

B1: glmS ribozyme (parent)
chain: AUAAAAGCGCCAGAACUACAGAAAUGUAGUUGACGAGGAGGAGGUUUAUCGAAUUUUCGGCGGAUGCCUCCAAA

What was measured:
Settings in all cases: with glucosamine-6-phosphate
glucosamine-6-phosphate [1] = variants of: B1; test: self-cleavage kobs at 40 uM GlcN6P; higher = faster cleavage; RNA array
How it was run: (§1)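 Ribozyme variants carrying barcodes were transcribed in situ on sequenced MiSeq chips by E. coli RNA polymerase and tracked at 37 °C with a hybridised Cy3 probe. They were exposed to 40 μM to 10 mM glucosamine-6-phosphate in HEPES/KCl/Mg(OAc)2 buffer. kobs came from exponential decay fits of normalised per-tile medians, and kcat and KM from weighted Michaelis–Menten fits.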

glucosamine-6-phosphate [2] = variants of: B1; test: self-cleavage kobs at 640 uM GlcN6P; higher = faster cleavage; RNA array
How it was run: as §1

glucosamine-6-phosphate [3] = variants of: B1; test: self-cleavage kobs at 160 uM GlcN6P; higher = faster cleavage; RNA array
How it was run: as §1

glucosamine-6-phosphate [4] = variants of: B1; test: self-cleavage kobs at 2500 uM GlcN6P; higher = faster cleavage; RNA array
How it was run: as §1

glucosamine-6-phosphate [5] = variants of: B1; test: self-cleavage kobs at 10000 uM GlcN6P; higher = faster cleavage; RNA array
How it was run: as §1

glucosamine-6-phosphate [6] = variants of: B1; test: kcat; higher = faster cleavage; RNA array
How it was run: as §1

Variant | self-cleavage kobs at 40 uM GlcN6P (glucosamine-6-phosphate [1]) [s⁻¹] | self-cleavage kobs at 640 uM GlcN6P (glucosamine-6-phosphate [2]) [s⁻¹] | self-cleavage kobs at 160 uM GlcN6P (glucosamine-6-phosphate [3]) [s⁻¹] | self-cleavage kobs at 2500 uM GlcN6P (glucosamine-6-phosphate [4]) [s⁻¹] | self-cleavage kobs at 10000 uM GlcN6P (glucosamine-6-phosphate [5]) [s⁻¹] | kcat (glucosamine-6-phosphate [6]) [s⁻¹]
A6G C50A | < 1e-05 | < 1e-05 | < 1e-05 | – | – | –
A6C A33C G62U C67U | < 1e-05 | – | – | < 1e-05 | – | –
A6C C16U G59U | < 1e-05 | < 1e-05 | – | < 1e-05 | < 1e-05 | –
A6G A12G A39C U56C | < 1e-05 | – | – | < 1e-05 | < 1e-05 | –
A6G A15U U31C G44U C71A | < 1e-05 | – | – | – | – | –
A6C C8A U30G G63U | < 1e-05 | – | – | < 1e-05 | < 1e-05 | –
A6G A39G A52C | < 1e-05 | – | – | – | – | –
A6C C67G | < 1e-05 | – | – | – | – | –
A6C A52C | < 1e-05 | < 1e-05 | < 1e-05 | < 1e-05 | < 1e-05 | –
A6C A14G C34G U45A C67U C70G | < 1e-05 | – | < 1e-05 | – | < 1e-05 | –
A6C G35U G43A G62U G63C C71U | < 1e-05 | – | – | – | < 1e-05 | –
A6C A15C | < 1e-05 | – | – | – | – | –
A6G C50G C58G | 0.000111 ± 2.7e-05 | – | 0.000451 ± 0.0001 | – | – | –
A6G A14C C71A | < 1e-05 | – | – | – | – | –
G62A C68G | < 1e-05 | – | – | – | < 1e-05 | < 1e-05
A6C G13C | < 1e-05 | < 1e-05 | < 1e-05 | < 1e-05 | < 1e-05 | –
A6C G13A | < 1e-05 | < 1e-05 | < 1e-05 | < 1e-05 | < 1e-05 | –
A6G A12C G40C G44U | < 1e-05 | < 1e-05 | – | – | < 1e-05 | –
G59C C61A | – | < 1e-05 | < 1e-05 | – | < 1e-05 | < 1e-05
A6C C10U | < 1e-05 | < 1e-05 | < 1e-05 | < 1e-05 | < 1e-05 | –
A6C A39G G41A U46A A64G | < 1e-05 | – | – | – | < 1e-05 | –
A6C A12C C71U | < 1e-05 | – | – | – | – | –
A6C U45C G63A | < 1e-05 | – | – | < 1e-05 | – | –
